The source of these data is paper PMC12136788.

Some of the results follow.

Sequences and labels used below:
T1: UNK ZnF1-3 (human, UniProt Q9C0B0 31-174)
T1 sequence: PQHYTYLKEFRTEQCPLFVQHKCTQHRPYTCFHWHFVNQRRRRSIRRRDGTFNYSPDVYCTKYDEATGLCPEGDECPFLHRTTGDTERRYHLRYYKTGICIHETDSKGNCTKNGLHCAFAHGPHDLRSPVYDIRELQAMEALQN

B1: chr2:216981417:216981418:+_ENSG00000079246_ENST00000392132|hu_hu|hu_hu_hu_mus_True|98_98 (ssRNA)
RNA: GGGAGUUCUACAGUCCGACGAUCCUGAUACUGGUCCCCACCAGAAAGGGCAUUAUCAGUGCCAUCUGUGCCAUAGAGGACUAACGCAAUCUCAUCUUUGCUCUCCGAAAAUACCUGUCGUUGGACAAACAUAGUCAUCACUUUCAACAGAGGAUUGAGCAUCA
B2: 31522678_31522798_1204_CDS_ENSMUSG00000022234_ENSMUST00000022842|mouse|control|control (ssRNA)
RNA: GGGAGUUCUACAGUCCGACGAUCGAUAACCAGCAUUUUGUCUUUUGUAGUGCCAAAGGAGAUCUCCUGCACCACACCAGCAAAGCCCAGCUUCUCAGAGGUGAGCUCUGAGAACCGUGGGACAAUCCGUCCUCCUGUUGCAAUCAACAGAGGAUUGAGCAUCA
B3: chr1:169100823:169100824:+_ENSG00000143153_ENST00000367816|hu_mus|motif|central (ssRNA)
RNA: GGGAGUUCUACAGUCCGACGAUCGACAGUUUGUUCAAGACUAGUAGGUUUGUGUAUCUUUUUUUAACUUAUUAAAUGGCGGGUGGGAAAGAUUUGUGCUUGUGAUCAGCUCUUAAUUUCAAUUUUUACAUCAAAGCGUCCCUGCAACAGAGGAUUGAGCAUCA
B4: chr9:127920631:127920632:-_ENSG00000119414_ENST00000456642|hu_hu|motif|central (ssRNA)
RNA: GGGAGUUCUACAGUCCGACGAUCAAUACGAUCAGGCCAUUUAGCCUUUAAUGCAAGAAGGUAAGUGAAGGUCUCCAAACGGUAGUAACCUCUGUCUACAAAAUCACCCAUAAAUAUGUAGUUUGUGUCAGGAACCUGACCUCCCAACAGAGGAUUGAGCAUCA
B5: chr4:107013644:107013645:+_ENSMUSG00000057375_ENSMUST00000075693|mus_hu|motif|central (ssRNA)
RNA: GGGAGUUCUACAGUCCGACGAUCCACAUAAUGGUACGUCUUCUCUCCCAGAUGGAUCAAGAAGUUGGAAAGAUUCCCACGGAUUGCGGUGGCAAAGACCAACGUGGCACAUAUCCAAAAGGGGCCAUAGAGAUCUGGAUUGCUCAACAGAGGAUUGAGCAUCA
B6: 225706969_225707089_1027_CDS_ENSG00000154380_ENST00000366843|human|control|control (ssRNA)
RNA: GGGAGUUCUACAGUCCGACGAUCUUCUUGCCUCUCCCGUUCCAGUCUCUCCAGCCUCUCUCGUUCUUGUCUUUCUUGCCUCUCCCGAUCCAGGCGUUCCUGCCGCUCCAGGCGUUCCUGCCGCUCCAGGCGUUCCUGCCGCUCCAACAGAGGAUUGAGCAUCA

This experiment concerns the target T1, UNK ZnF1-3. Briefly: nsRBNS (natural sequence RNA bind-n-seq); RBNS binding buffer (assumed for nsRBNS): 25 mM Tris pH 7.5, 150 mM KCl, 3 mM MgCl2, 0.01% Triton X-100, 500 ug/ml BSA, 20 U/ml SUPERase-In, 4 C; UNK is unkempt and MSI1 is Musashi-1; names of the RNAs are library labels; protein concentration not given here; high values mean tight binding.
For the molecule B1, the binding signal was 0.992 enrichment R.

In turn, B2 showed a binding signal of 0.839 enrichment R.

As for B3, the binding signal is 1.24 enrichment R.

B4 registered a binding signal of 1 enrichment R.

The molecule B5 gave a binding signal of 1.26 enrichment R.

B6 returned a binding signal of 0.565 enrichment R.
